The text below walks through data of ChEMBL document CHEMBL4888484, “Replenishing the malaria drug discovery pipeline: Screening and hit evaluation of the MMV Hit Generation Library 1 (HGL1) against asexual blood stage Plasmodium falciparum ,using a nano luciferase reporter read-out” (2022).

Out of some 150,000 compounds screened, about 540 (0.36%) showed an effect of 50% or more. The list shows a part of the results.

The subject of the experiment is Plasmodium falciparum. The experiment can be described thus: Primary screen in NF54 nanoGlo assay, in single point, at 2uM, 72h; a lower Z score goes with more inhibition. The settings on record: timepoint 72 hour. Format: functional, Erythrocyte.
As for `C[C@@H](c1nnnn1C1CC1)S(=O)(=O)C1CCC(C)(C)CC1`, the % Inhibition (commonly the drop in the measured response relative to a control, in per cent) was -12% and the Z score is reported as 1.93.

In the case of `O=C(Oc1nsnc1N1CCOCC1)N1CCCCC1`, the “% Inhibition” value was -3% and the Z score stood at 0.4.

Consider `CCOc1ncccc1C(=O)N1CCc2n[nH]c(C(=O)NC)c2C1`, for which the “% Inhibition” value came out at 0% and the Z score is -0.08.

Take `O=C(OCc1nc(-c2ccccc2)no1)[C@@H]1COc2ccccc21`: the “% Inhibition” value turned out to be 0% and the Z score was -0.05.

Turning to `O=C(Nc1cccnc1)[C@H]1CCC(F)(F)C1`, the “% Inhibition” value is reported as 9% and the Z score is given as -1.35.

With `O=C(Cc1ccc(F)cc1Cl)NC1(C(=O)O)CCC1`, the “% Inhibition” value is given as -7% and the Z score is 0.96.

As for `CC(C)N1CCN(C(=O)CN2C(=O)[C@@H]3CCCN3C(=O)c3cc(F)ccc32)CC1`, the “% Inhibition” value is recorded as -2% and the Z score is listed as 0.27.

For `CNC(=O)[C@H]1CC[C@H](CNc2nc(C)cnc2C)CC1`, the “% Inhibition” value was 0% and the Z score is listed as 0.01.

In the case of `CCOC(=O)c1cnc(NS(=O)(=O)c2ccc(F)c(Cl)c2)n1C`, the “% Inhibition” value is given as -3% and the Z score amounted to 0.45.

In the case of `NC[C@H]1CN(S(=O)(=O)c2ccc3c(c2)CCC3)CCO1`, the “% Inhibition” value is given as -12% and the Z score is on record as 1.65.

On to `Cn1cc(CN2CCC[C@@H](NC(=O)OC(C)(C)C)C2)cn1`, for which the “% Inhibition” value is reported as -1% and the Z score came out at 0.1.

Turning to `COCCOc1cc(C(=O)NCc2nc(C)no2)ccn1`, the “% Inhibition” value is -11% and the Z score was found to be 1.99.

Turning to `CCN(CC)CCNC(=O)C1CCN(c2c(NC(C)=O)c(C)nn2-c2ccccc2)CC1`, the “% Inhibition” value is -13% and the Z score is reported as 2.33.

As to `Cc1nc(C)c(C(=O)N(C)Cc2nc3ccccc3c(=O)[nH]2)s1`, the “% Inhibition” value is -16% and the Z score amounted to 2.1.

Turning to `O=C(c1cncc(F)c1)N1C2CCC1CC(Oc1cccnc1)C2` (centres undefined), the “% Inhibition” value is reported as -7% and the Z score is 1.48.

As for `Cc1cc(C(C)(O)CNC(=O)NC(c2ccccn2)C(C)C)c(C)o1` (centres undefined), the “% Inhibition” value was 0% and the Z score is 0.04.

Turning to `CCOCCC1(CN[C@@H](C)CCOC)CCCC1`, the “% Inhibition” value is listed as -11% and the Z score worked out at 0.94.

With `Cc1ccccc1C(C)(C)CNC(=O)NC[C@](C)(O)c1cnn(C)c1`, the “% Inhibition” value is given as -1% and the Z score turned out to be 0.17.

Turning to `Cc1c(CNC2CCCC2)c(C(=O)O)c(C)n1Cc1ccccc1Cl`, the “% Inhibition” value is recorded as -3% and the Z score amounted to 0.41.

With `CN(CCC1CCOCC1)C(=O)c1ccc(O)c(Cl)c1`, the “% Inhibition” value is -5% and the Z score was found to be 0.88.

On to `CC(C)C[C@H]1C[C@@H]1C(=O)Nc1nccnc1C1CC1`, for which the “% Inhibition” value was -1% and the Z score amounted to 0.15.

With `O[C@@H]1CCCCC[C@H]1NCc1ccc2c(c1)OCCCCO2`, the “% Inhibition” value was -12% and the Z score is 1.33.

Take `CCC1CC(CC(=O)Nc2ccc3oc(C(N)=O)nc3c2)CCO1` (centres undefined): the “% Inhibition” value is recorded as -16% and the Z score turned out to be 2.03.

For `O=C(NCc1ccccc1)N1CCOC[C@@H]1CC1CCOCC1`, the “% Inhibition” value is reported as 0% and the Z score is -0.02.

Turning to `C=CCOC[C@@H](O)CN(CCC(C)C)Cc1c(-c2ccccc2)noc1N(C)C(C)C`, the “% Inhibition” value is given as -3% and the Z score amounted to 0.49.

`CS(=O)(=O)C1CCCCC1NC1CCOc2ccc(F)cc21` (centres undefined): the “% Inhibition” value is on record as -11% and the Z score is 1.4.

Regarding `CCOC(=O)COCCNC(=O)c1ccnc2[nH]cnc12`, the “% Inhibition” value is reported as -10% and the Z score was 1.58.

Consider `CC(=Cc1cnc(C(C)(C)C)nc1)c1ncccn1`, for which the “% Inhibition” value is -1% and the Z score amounted to 0.11.

Consider `O=C(c1cc(-c2ccccc2Cl)nn1-c1ccc(Cl)c(Cl)c1)N1CCN(c2ccccc2Cl)CC1`, for which the “% Inhibition” value is -6% and the Z score came out at 1.06.

In the case of `O=C(COc1ccc(Cl)cc1Cl)Nc1nnc([C@@H]2CCCO2)o1`, the “% Inhibition” value is 4% and the Z score is on record as -0.44.

With `CCCc1c(C(=O)N2CCN(c3nc4nccc(-c5ccc(C(C)(C)C)cc5)n4n3)CC2)cnn1-c1ccccc1`, the “% Inhibition” value is -5% and the Z score is on record as 0.55.

As for `COCC(=O)N(C1CCOCC1)[C@H]1CCN(C(=O)Cc2ccccc2Cl)C1`, the “% Inhibition” value is 28% and the Z score is given as -3.17.

For the compound `COCCC1CCCCN1C(=O)CC1(c2ccc(-c3ccccc3)cc2)CC(=O)N(C2CC2)C1=O` (centres undefined), the “% Inhibition” value stood at 7% and the Z score is -0.94.

Consider `CN(CCCc1cnn(C)c1)c1nc(N)nc2ccc(C(=O)O)cc12`, for which the “% Inhibition” value is -11% and the Z score is recorded as 1.03.

Take `COc1cc(C)c(S(=O)(=O)N(C2CC2)C2(C#N)CCC2)cc1C`: the “% Inhibition” value is -5% and the Z score came to 0.61.

`CCNC(=O)CCS(=O)(=O)Cc1cccc(OC)c1`: the “% Inhibition” value was 6% and the Z score is listed as -1.09.

In the case of `CC(=O)Nc1ccnn1CC1=CCCN(Cc2ncccc2C)C1`, the “% Inhibition” value is listed as 9% and the Z score was -1.36.

Take `C#CCN(CC(=O)N1CC(C)OC(C)C1)Cc1cccc(C)n1` (centres undefined): the “% Inhibition” value was -4% and the Z score amounted to 0.68.

Take `Cc1nc([C@@H](C)Cn2cccn2)n(-c2cccc3cccnc23)n1`: the “% Inhibition” value is reported as 11% and the Z score was -1.39.

In the case of `O=C(N[C@@H]1CN(C(=O)CC2CCCCC2)C[C@H]1CO)c1ccccc1`, the “% Inhibition” value is -14% and the Z score was determined as 2.44.

With `CC1(C)[C@@H](N(O)C(=O)Nc2cccc(C(F)(F)F)c2)N(c2cccc(C(F)(F)F)c2)C(=O)N1Cc1ccc2c(c1)OCO2`, the “% Inhibition” value is reported as 4% and the Z score is recorded as -0.52.

`O=C1N[C@@H](CC2CCCCC2)C(=O)N[C@@H](Cc2ccccc2)C(=O)NCc2cn(nn2)CCOc2ccc(Cl)cc21`: the “% Inhibition” value is 1% and the Z score is listed as -0.2.
